Experimental data from PubChem BioAssay AID686979 (National Center for Advancing Translational Sciences (NCATS), 2013).
Screen size: about 420,000 compounds; about 50,000 (12%) were called active. The inconclusive results got no clear call from the source; some entries with a clear call stand among them for comparison. The call rests on the fitted dose curve; in most records, active means well fitted inhibition curve with a large enough effect; inconclusive means small, poorly fitted or top-dose-only effect; inactive means flat fitted curve, though single readings scatter. Potencies of inconclusive entries are left out as doubtful fits.

Assay: qHTS for Inhibitors of human tyrosyl-DNA phosphodiesterase 1 (TDP1): qHTS in cells in presence of CPT; further: nearly all actives have a fitted effect of over 55% in size
Details: chicken DT40 Tdp1-/-;hTDP1 cells + 20 nM CPT, ATP luminescence, 48 h; activity change, negative = growth inhibition: at 46.2 µM (top of the series) unless noted
How it was run: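 Chicken DT40 Tdp1-/- cells complemented with human TDP1, 400 cells/well, exposed to compounds plus 20 nM camptothecin for at least 48 h at 37 C; viability read as ATP content by CellTiter-Glo luminescence.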
On the % scale 0 is the no-effect control and ±100 the full control effect; potency means the concentration at half of the fitted maximal effect; tags describe the fitted curve by direction and shape.

Structure (SMILES)	Potency	activity change, negative = growth inhibition
O=C1O[C@@H](c2ccccc2)C[C@@H](O)C(=O)CCCc2ccccc21	inconclusive [inhibitor, partial curve]	
CC(C)Cn1c(C23CC4CC(CC(C4)C2)C3)n[nH]c1=S	inconclusive [inhibitor, partial curve]	
CCN(C(=O)COC(=O)c1cc(-c2cccs2)nc2ccccc12)C1CCS(=O)(=O)C1 (stereo unspecified)		inactive: -4.48%
CCOc1ccccc1NC(=O)Cn1c(=O)n(Cc2ccco2)c(=O)c2ccc(C(=O)NC3CCCC3)cc21	inconclusive [inhibitor, partial curve]	
CC1(C)C=C(c2ccc(C=O)s2)CC(C)(C)N1C=O		inactive: 0.723%
CCCOc1ccc(Br)cc1/C=N/NC(=O)c1cc(OC)c(OC)c(OC)c1		inactive: 3.48%
COc1ccc(-c2nc(C#N)c(N3CCC(C)CC3)o2)cc1	inconclusive [inhibitor, partial curve, poor fit]	
COc1ccc(-n2c(Cc3cccn3C)nnc2SCC(=O)Nc2cccc(Cl)c2)cc1	inconclusive [inhibitor, single point]	
CC(C)[C@H](NC(=O)c1ccco1)C(=O)NC12CC3CC(CC(C3)C1)C2	inconclusive [inhibitor, partial curve]	
O=C(CSc1c[nH]c2ccccc12)N1CCCc2ccccc21	inconclusive [inhibitor, single point]	
CC(OC(=O)c1ccccc1N1C(=O)C2C3CCC(C3)C2C1=O)C(=O)c1ccccc1 (stereo unspecified)		inactive: -11.2%
CCn1c(SCC(=O)N/N=C/c2ccc(OC)c(OC)c2)nc2ccccc21	inconclusive [inhibitor, single point]	
COc1ccc(CNc2oc(Cc3cccc4ccccc34)nc2C#N)cc1	inconclusive [inhibitor, single point]	
C=CCOc1ccc(-c2nc3c(c(=O)[nH]c(=O)n3CCCC)n2C)cc1OC	inconclusive [inhibitor, single point]	
O=C(Nc1ccc(Br)cc1)c1ccccc1CC[N+](=O)[O-]	inconclusive [inhibitor, partial curve]	
O=C(N/N=C/c1ccc[nH]1)c1cc(-c2ccc(Cl)cc2)nc2ccccc12	inconclusive [inhibitor, single point]	
CCc1ccccc1NC(=O)C1CCN(C(=O)N2CC(C)Oc3ccc(Cl)cc32)CC1 (stereo unspecified)	inconclusive [inhibitor, single point]	
CCO[C@H]1OC(C(=O)NCc2ccccc2)=C[C@@H](c2ccc3c(c2)OCO3)[C@@H]1CCCO	inconclusive [inhibitor, partial curve]	
O=C1c2ccccc2NC(c2cccc(O)c2)N1Cc1ccco1 (stereo unspecified)	inconclusive [inhibitor, single point]	
COc1ccc(Cl)cc1NC(=O)Cn1nc(Cc2ccncc2)c2ccccc2c1=O	inconclusive [inhibitor, single point]	
COc1ccc(CN(C)C(=O)c2oc3ccccc3c2CSC)cc1F	active: 23.1 µM	
O=C(Nc1nc(-c2ccc(F)cc2)cs1)c1cccc(N2C(=O)CCC2=O)c1	inconclusive [inhibitor, single point]	
CNCCCCOc1ccc(C(C)(C)C)cc1Cl	inconclusive [inhibitor, single point]	

Structure (SMILES)	Potency	activity change, negative = growth inhibition
COc1ccc(S(=O)(=O)Nc2cccc3c2O[C@H](CN(C)Cc2ccccc2)[C@@H](C)CN([C@H](C)CO)C3=O)cc1	inconclusive [inhibitor, single point]	
CCOc1ccc(-n2c(SCC(=O)N3CCCCCC3)nc3c([nH]c4ccccc43)c2=O)cc1	active: 20.6 µM	
CC(C)COC(=O)c1ccc(N)cc1		inactive: -2.42%
CCc1c(C)nc(N2CCOCC2)[nH]c1=O		inactive: -1.99%
CCN(CC)S(=O)(=O)c1ccc2c(c1)nc(SC(C)C(N)=O)n2-c1ccc(OC)cc1 (stereo unspecified)	inconclusive [inhibitor, single point]	
CCOC(=O)C1CCN(C(=O)C(C)Oc2ccc(Br)cc2)CC1 (stereo unspecified)		inconclusive: -30.1% [inhibitor]
Cc1ccc(S(=O)(=O)Nc2ccc(-c3csc(-c4ccccc4)n3)cc2)cc1	inconclusive [inhibitor, single point]	
COc1cc(/C=N/Nc2nc(=O)[nH]nc2C)cc(OC)c1O	inconclusive [inhibitor, single point]	
CCCn1c(N)c(Sc2ccccc2)c(=O)n(CCC)c1=O	inconclusive [inhibitor, single point]	
Cc1ccc(OC(=O)CSc2nnc(-c3cccs3)o2)cc1C		inactive: -20.8%
Cc1ccc(/C=c2/sc3n(c2=O)CCCN=3)o1	inconclusive [inhibitor, partial curve, poor fit]	
Cc1ccc(NC(=O)Cn2c(=O)oc3ccccc32)cc1C	inactive	
Cc1ccc2nc(-c3cc(-c4ccccc4)no3)cn2c1		inactive: 25.1%
CC1(c2ccc(Cl)cc2)NC(=O)N(CN2CCOCC2)C1=O (stereo unspecified)		inactive: -0.237%
CCNc1ccc(Br)cc(C(=O)/C=C/c2ccc3c(c2)OCO3)c1=O	active: 29.1 µM	
CCOc1ccc(N(CC(=O)Nc2ccccc2CC)S(=O)(=O)c2c(C)[nH]c(=O)[nH]c2=O)cc1		inactive: 0.923%
CC1=C(C(=O)OCc2ccccc2)C(c2ccccc2OS(=O)(=O)c2ccc(C)cc2)NC(=O)N1CCCC(=O)O (stereo unspecified)		inactive: -28.4%
CC(C)Cn1c(N)c(C(=O)COC(=O)c2ccc3ccccc3n2)c(=O)n(C)c1=O	active: 16.4 µM	
CC(C)CCN1CCN(Cc2nc3c(s2)CCCC3)CC1CCO (stereo unspecified)		inactive: -19.1%
COc1ccc(/C=N/NC(=O)c2cccnc2)cc1CSc1nc2ccccc2s1	active: 3.66 µM	
Cc1ccc(C(=O)Nc2ccc(F)cc2)cc1NC1=NC2CS(=O)(=O)CC2S1 (stereo unspecified)		inactive: 6.59%
Nc1ncnc2nnsc12		inactive: -10.5%
CC(C)(C)c1ccc(C(=O)Nc2ccc(C(=O)N3CCOCC3)cc2)cc1	active: 23.1 µM	
